{"source": "the supplement of paper PMC8728848", "binders": {"B1": {"name": "Clec49 (Caenorhabditis elegans) (protein)", "chain": "MTRLTLLLFGLLGAATAQTCNTGGIYNEQFNRCYQYFTAPAQFSFAEQQCNLLGGHLASVQNGQENALLQSNAANSFKRSNYSDYWIGATDLETSGTWKWTDPSVTFDYSNWQLGEPQSGSDCAIQDKGDGTWSAIGCTSYRPYVCVTPVIMTATCPPITTPIPTTCPTPAPCPIKQCVPSCDQGWTYFSPTDFCYRVYHGEKFNDAEASCVLLGGHLASIHSLTENTFVNNIASCGIKEGKYEHLAWIGMRKVGQDWVWTDGTPSDYFNWAPKQPDNPKKELCVQTAPDLSHDKWYENWNNLECNEVMRAYICKKASIHN"}}, "assay_in_all_cases": "glycan array binding signal (z-score within array); higher = stronger binding", "conditions_in_all_cases": "glycan notation: IUPAC condensed, linker removed", "key": {"Fuc(a1-3)GlcNAc": {"biological_target": "Fuc(a1-3)GlcNAc", "procedure,_shortened": "(§1)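 The Consortium for Functional Glycomics database supplied 3228 glycan arrays, of which those lacking an available protein sequence were dropped. The binding signal, a within-array Z-score, was averaged across arrays of the same protein sequence and across linkers. Negative scores can be read as non-binding.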"}, "[1]": {"biological_target": "Fuc(a1-3)[Gal(b1-4)]Glc6S", "procedure,_shortened": "as §1"}, "[2]": {"biological_target": "Fuc(a1-3)[Gal(b1-4)]GlcNAc", "procedure,_shortened": "as §1"}, "[3]": {"biological_target": "Fuc(a1-3)[Gal(b1-4)]GlcNAc(b1-2)Man", "procedure,_shortened": "as §1"}, "[4]": {"biological_target": "Fuc(a1-3)[Gal(b1-4)]GlcNAc(b1-2)Man(a1-3)[Fuc(a1-3)[Gal(b1-4)]GlcNAc(b1-2)Man(a1-6)]Man(b1-4)GlcNAc(b1-4)GlcNAc", "procedure,_shortened": "as §1"}, "[5]": {"biological_target": "Fuc(a1-3)[Gal(b1-4)]GlcNAc(b1-2)Man(a1-3)[Fuc(a1-3)[Gal(b1-4)]GlcNAc(b1-2)Man(a1-6)]Man(b1-4)GlcNAc(b1-4)[Fuc(a1-6)]GlcNAc", "procedure,_shortened": "as §1"}, "[6]": {"biological_target": "Fuc(a1-3)[Gal(b1-4)]GlcNAc(b1-3)Gal(b1-3)[Fuc(a1-4)]GlcNAc", "procedure,_shortened": "as §1"}, "[7]": {"biological_target": "Fuc(a1-3)[Gal(b1-4)]GlcNAc(b1-3)Gal(b1-4)[Fuc(a1-3)]GlcNAc", "procedure,_shortened": "as §1"}, "[8]": {"biological_target": "Fuc(a1-3)[Gal(b1-4)]GlcNAc(b1-3)Gal(b1-4)[Fuc(a1-3)]GlcNAc(b1-3)Gal(b1-4)[Fuc(a1-3)]GlcNAc", "procedure,_shortened": "as §1"}, "[9]": {"biological_target": "Fuc(a1-3)[Gal(b1-4)]GlcNAc(b1-3)GalNAc", "procedure,_shortened": "as §1"}, "[10]": {"biological_target": "Fuc(a1-3)[Gal(b1-4)]GlcNAc(b1-6)GalNAc", "procedure,_shortened": "as §1"}, "[11]": {"biological_target": "Fuc(a1-3)[Gal(b1-4)]GlcNAc(b1-6)[Gal(b1-3)GlcNAc(b1-3)]Gal(b1-4)Glc", "procedure,_shortened": "as §1"}, "[12]": {"biological_target": "Fuc(a1-3)[Gal(b1-4)]GlcNAc6S", "procedure,_shortened": "as §1"}, "[13]": {"biological_target": "Fuc(a1-3)[Gal3S(b1-4)]Glc", "procedure,_shortened": "as §1"}, "[14]": {"biological_target": "Fuc(a1-3)[Gal3S(b1-4)]GlcNAc", "procedure,_shortened": "as §1"}, "[15]": {"biological_target": "Fuc(a1-3)[Gal3S(b1-4)]GlcNAc6S", "procedure,_shortened": "as §1"}, "[16]": {"biological_target": "Fuc(a1-3)[GalNAc(b1-4)]GlcNAc", "procedure,_shortened": "as §1"}, "[17]": {"biological_target": "Fuc(a1-3)[GalNAc(b1-4)]GlcNAc6S", "procedure,_shortened": "as §1"}, "Fuc(a1-4)GlcNAc": {"biological_target": "Fuc(a1-4)GlcNAc", "procedure,_shortened": "as §1"}, "Fuc(b1-3)GlcNAc": {"biological_target": "Fuc(b1-3)GlcNAc", "procedure,_shortened": "as §1"}, "Gal(a1-2)Gal": {"biological_target": "Gal(a1-2)Gal", "procedure,_shortened": "as §1"}, "Gal(a1-3)Gal": {"biological_target": "Gal(a1-3)Gal", "procedure,_shortened": "as §1"}, "Gal(a1-3)Gal(b1-3)GlcNAc": {"biological_target": "Gal(a1-3)Gal(b1-3)GlcNAc", "procedure,_shortened": "as §1"}, "[18]": {"biological_target": "Gal(a1-3)Gal(b1-3)GlcNAc(b1-2)Man", "procedure,_shortened": "as §1"}, "[19]": {"biological_target": "Gal(a1-3)Gal(b1-3)GlcNAc(b1-2)Man(a1-3)[Gal(a1-3)Gal(b1-3)GlcNAc(b1-2)Man(a1-6)]Man(b1-4)GlcNAc(b1-4)GlcNAc", "procedure,_shortened": "as §1"}, "[20]": {"biological_target": "Gal(a1-3)Gal(b1-3)GlcNAc(b1-3)GalNAc", "procedure,_shortened": "as §1"}, "[21]": {"biological_target": "Gal(a1-3)Gal(b1-3)GlcNAc(b1-6)GalNAc", "procedure,_shortened": "as §1"}, "[22]": {"biological_target": "Gal(a1-3)Gal(b1-3)[Fuc(a1-4)]GlcNAc(b1-2)Man(a1-3)[Gal(a1-3)Gal(b1-3)[Fuc(a1-4)]GlcNAc(b1-2)Man(a1-6)]Man(b1-4)GlcNAc(b1-4)GlcNAc", "procedure,_shortened": "as §1"}, "Gal(a1-3)Gal(b1-4)Glc": {"biological_target": "Gal(a1-3)Gal(b1-4)Glc", "procedure,_shortened": "as §1"}, "Gal(a1-3)Gal(b1-4)GlcNAc": {"biological_target": "Gal(a1-3)Gal(b1-4)GlcNAc", "procedure,_shortened": "as §1"}}, "note": "The list shows a part of the results."}
{"binder": "B1", "values": [{"measurement": "glycan array binding signal (z-score)", "setting": "Fuc(a1-3)GlcNAc", "value": -0.399}, {"measurement": "glycan array binding signal (z-score)", "setting": "[1]", "value": 1.3}, {"measurement": "glycan array binding signal (z-score)", "setting": "[2]", "value": -0.252}, {"measurement": "glycan array binding signal (z-score)", "setting": "[3]", "value": -0.059}, {"measurement": "glycan array binding signal (z-score)", "setting": "[4]", "value": -0.461}, {"measurement": "glycan array binding signal (z-score)", "setting": "[5]", "value": -0.249}, {"measurement": "glycan array binding signal (z-score)", "setting": "[6]", "value": 0.332}, {"measurement": "glycan array binding signal (z-score)", "setting": "[7]", "value": 0.226}, {"measurement": "glycan array binding signal (z-score)", "setting": "[8]", "value": -0.52}, {"measurement": "glycan array binding signal (z-score)", "setting": "[9]", "value": -0.416}, {"measurement": "glycan array binding signal (z-score)", "setting": "[10]", "value": 1.24}, {"measurement": "glycan array binding signal (z-score)", "setting": "[11]", "value": -0.397}, {"measurement": "glycan array binding signal (z-score)", "setting": "[12]", "value": -0.462}, {"measurement": "glycan array binding signal (z-score)", "setting": "[13]", "value": 0.244}, {"measurement": "glycan array binding signal (z-score)", "setting": "[14]", "value": -0.17}, {"measurement": "glycan array binding signal (z-score)", "setting": "[15]", "value": 0.018}, {"measurement": "glycan array binding signal (z-score)", "setting": "[16]", "value": -0.52}, {"measurement": "glycan array binding signal (z-score)", "setting": "[17]", "value": -0.666}, {"measurement": "glycan array binding signal (z-score)", "setting": "Fuc(a1-4)GlcNAc", "value": -0.592}, {"measurement": "glycan array binding signal (z-score)", "setting": "Fuc(b1-3)GlcNAc", "value": -0.132}, {"measurement": "glycan array binding signal (z-score)", "setting": "Gal(a1-2)Gal", "value": 0.347}, {"measurement": "glycan array binding signal (z-score)", "setting": "Gal(a1-3)Gal", "value": 0.464}, {"measurement": "glycan array binding signal (z-score)", "setting": "Gal(a1-3)Gal(b1-3)GlcNAc", "value": -0.36}, {"measurement": "glycan array binding signal (z-score)", "setting": "[18]", "value": 0.087}, {"measurement": "glycan array binding signal (z-score)", "setting": "[19]", "value": 1.07}, {"measurement": "glycan array binding signal (z-score)", "setting": "[20]", "value": -0.009}, {"measurement": "glycan array binding signal (z-score)", "setting": "[21]", "value": -0.537}, {"measurement": "glycan array binding signal (z-score)", "setting": "[22]", "value": 1.48}, {"measurement": "glycan array binding signal (z-score)", "setting": "Gal(a1-3)Gal(b1-4)Glc", "value": 0.288}, {"measurement": "glycan array binding signal (z-score)", "setting": "Gal(a1-3)Gal(b1-4)GlcNAc", "value": -0.514}]}
